Test results published in publication PMC4336329 (PLoS ONE, 2015).
Out of some 310,000 compounds screened, about 2,200 (0.71%) showed an effect of 50% or more. The effect is printed as a negative number. This is one part of the list.

These compounds were tested against human ether-à-go-go-related gene (hERG) potassium channel (human, UniProt Q12809) (assay: primary screen, population patch clamp on CHO cells stably expressing hERG).
human ether-à-go-go-related gene (hERG) potassium channel, sequence (Q12809 whole entry, looked up): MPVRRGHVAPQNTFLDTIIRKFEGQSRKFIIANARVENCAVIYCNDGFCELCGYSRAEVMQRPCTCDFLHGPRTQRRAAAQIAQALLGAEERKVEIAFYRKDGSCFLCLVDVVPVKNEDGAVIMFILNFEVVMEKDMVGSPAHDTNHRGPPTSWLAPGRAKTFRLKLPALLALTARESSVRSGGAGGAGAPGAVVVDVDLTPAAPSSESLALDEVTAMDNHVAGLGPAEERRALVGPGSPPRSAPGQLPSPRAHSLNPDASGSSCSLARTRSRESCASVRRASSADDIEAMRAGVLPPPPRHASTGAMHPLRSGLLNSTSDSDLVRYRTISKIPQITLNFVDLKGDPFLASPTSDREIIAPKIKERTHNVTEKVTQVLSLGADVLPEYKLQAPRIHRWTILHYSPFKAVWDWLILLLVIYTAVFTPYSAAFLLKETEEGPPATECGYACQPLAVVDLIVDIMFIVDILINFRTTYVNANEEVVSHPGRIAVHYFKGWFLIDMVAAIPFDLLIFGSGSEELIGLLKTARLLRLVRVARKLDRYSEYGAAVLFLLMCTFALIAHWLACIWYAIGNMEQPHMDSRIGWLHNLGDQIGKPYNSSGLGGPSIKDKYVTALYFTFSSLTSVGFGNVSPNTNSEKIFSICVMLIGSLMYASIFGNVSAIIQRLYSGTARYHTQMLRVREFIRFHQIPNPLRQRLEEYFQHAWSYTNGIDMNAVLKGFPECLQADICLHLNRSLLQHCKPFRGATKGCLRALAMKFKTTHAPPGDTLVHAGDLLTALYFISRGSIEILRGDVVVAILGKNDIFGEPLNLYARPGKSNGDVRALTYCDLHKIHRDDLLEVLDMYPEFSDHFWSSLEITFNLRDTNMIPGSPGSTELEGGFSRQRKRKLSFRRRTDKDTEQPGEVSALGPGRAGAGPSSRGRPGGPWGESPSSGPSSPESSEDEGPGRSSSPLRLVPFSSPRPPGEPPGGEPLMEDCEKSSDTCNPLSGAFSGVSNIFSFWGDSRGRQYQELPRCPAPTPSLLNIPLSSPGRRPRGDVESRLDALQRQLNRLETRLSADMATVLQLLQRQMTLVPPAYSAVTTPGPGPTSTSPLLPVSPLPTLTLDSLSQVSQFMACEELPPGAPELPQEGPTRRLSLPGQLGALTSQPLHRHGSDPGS

Structure (SMILES)	hERG current change (%, negative = inhibition) at 1uM
COC(=O)c1cc(Cl)c(NS(=O)(=O)c2ccccc2)cc1OC	16.7%
Cc1n[nH]c(C)c1CCC(=O)N/N=C/c1cccs1	15.6%
COc1cc(OC)cc(C(=O)Nc2c(C)nn(-c3ccccc3)c2C)c1	0.777%
COCCNC(=O)CCc1nc2cccnc2n1Cc1ccc(OC)cc1	12.5%
COc1cc(/C=C/c2[nH]c(=O)[nH]c(=O)c2[N+](=O)[O-])cc([N+](=O)[O-])c1O	16.3%
COc1ccc(NC(=O)C(=O)NCC2CCCN2S(=O)(=O)c2cccs2)cc1 (stereo not shown)	11.4%
C/C(=N\NC(=O)Cn1nc(C)c(Br)c1C)c1cccs1	1.82%
CCCCN(C(=O)CSCC(=O)Nc1ccc(C)cc1)c1c(N)n(Cc2ccccc2)c(=O)[nH]c1=O	14.6%
OC(c1nnc(-c2ccccc2)o1)c1cccs1 (stereo not shown)	8.42%
Br.COc1ccc(C2=CSC3=NCCN23)cc1	-0.998%
C=C1C[C@@]23CCC4[C@@](C)(CCC[C@@]4(C)C(=O)O)C2CC[C@]1(O)C3 (stereo partly shown)	11.8%
COc1ccc(Cl)cc1S(=O)(=O)Nc1ccncc1	9.15%
COc1cc(CC(=O)OCC(=O)NC2CC2)cc(OC)c1OC	17.9%
COc1cccc(OC)c1C(=O)Nc1cccc(-n2cnnn2)c1	10.4%
Cc1ccc(NC(=S)N2CCN(C3CCCCC3)CC2)cc1	-10.7%
CCOC(=O)C1C(c2cccc([N+](=O)[O-])c2)C2C(=O)NN=C2CC1(C)O (stereo not shown)	15.3%
Cc1ccc(-c2csc(Nc3ccc(C(=O)O)cc3)[n+]2Cc2ccccc2)cc1.[Br-]	9.84%
CCn1ccnc1CN1CCCC(C(=O)c2ccc3cc(OC)ccc3c2)C1 (stereo not shown)	-0.928%
COc1cccc(C(=O)C2CCCN(C/C=C/c3ccccc3OC)C2)c1 (stereo not shown)	-2.82%
CCOC(=O)C1=C(c2ccccc2)O/C(=C(\C(=O)OC)C(F)(F)F)S1	8.55%
CC1(C)CC(Nc2ccc(Nc3ccccc3)cc2)CC(C)(C)N1	11%
O=C(Nc1nnc(S(=O)(=O)N2CCOCC2)s1)c1cccc(Br)c1	20.4%

Structure (SMILES)	hERG current change (%, negative = inhibition) at 1uM
CN1CCN(C(=O)C2=C[C@@H](c3csc4ccccc34)C[C@@H](OCCCCO)O2)CC1	-5.03%
CCOc1ccc(CCNC(=O)CCc2nnc3ccc(N4CCCCC4)nn23)cc1OCC	5.98%
CCN(C(=O)CN1C(=O)S/C(=C\c2ccc(Cl)cc2)C1=O)C1CCS(=O)(=O)C1 (stereo not shown)	9.44%
O=c1cc(CO)oc(C(Nc2cccc(C(F)(F)F)c2)c2ccccn2)c1O (stereo not shown)	15.8%
Cc1nnsc1C(=O)Nc1ccc(Cl)cc1Cl	12.4%
O=C(Nc1ccc(-c2nc3ccccc3o2)cc1)c1cc(-n2cnnc2)ccc1Cl	6.74%
O=C(Nc1ccc(F)cc1)c1cc(Cl)sc1Cl	-5.88%
CCN(CC(=O)N1CCCC1)S(=O)(=O)c1ccc(OC)cc1	21.1%
CC(=O)c1cccc(NC(=O)CSc2nc(=O)n(CCN3CCOCC3)c3c2CCCC3)c1	-2.06%
CC(C)Cc1nnc(NC(=O)CN2C(=O)C3CCCCC3C2=O)s1 (stereo not shown)	0.443%
O=S(=O)(CC(CN1CCCC1)N1CCCC1)c1ccc2ccccc2c1 (stereo not shown)	-2.72%
CC(C)(C)c1ccc(OCCN2CCCC2)cc1	3.23%
CC(C)(CCl)C(=O)Nc1ccc(Sc2ccc(F)cc2)cc1	7.93%
O=C(Nc1ccc(F)cc1)C1CCCN(S(=O)(=O)c2cccc3nonc23)C1 (stereo not shown)	10.6%
N#CC1=C(O)C(c2ccccc2)n2c1nc(=O)c1ccccc12 (stereo not shown)	-14.6%
CC1CC(OP(O)(=S)c2ccc(N(C)C)cc2NC(=O)c2cccs2)CC(C)(C)C1 (stereo not shown)	9.54%
COC(=O)c1oc2nc(C)cc(C)c2c1N	4.2%
COc1ccc(C2=NS(=O)(=O)N(C)C(C(=O)N(C)Cc3ccccc3)=C2)cc1OC	7.11%
C=CCN1C(=O)/C(=C/c2ccc(OC)cc2)S/C1=N/c1nccs1	6.85%
O=C(CSc1ncccn1)NC(=O)NCc1ccco1	5.01%
COC(=O)c1cccc(NC(=O)CN(c2ccc3c(c2)OCO3)S(C)(=O)=O)c1C	10.6%
CCc1nnc(NC(=O)CN2CCN(c3ccccc3OC)CC2)s1.Cl	-10.5%

Structure (SMILES)	hERG current change (%, negative = inhibition) at 1uM
CC1CC(=O)c2cn3c(nc2C1)nc1ccccc13 (stereo not shown)	0.565%
O=C(NCc1ccccc1)C1CCN(S(=O)(=O)c2cccc3cccnc23)CC1	4.08%
CC(=O)Nc1ccc(NS(=O)(=O)c2cc(C)sc2C)cc1	5.82%
CCOC(=O)C1CCN(C(=O)COC(=O)c2cccc(F)c2)CC1	2.2%
CC12CN3CC(=O)N4CC5(C)CN(CC(C)(C4)C5=O)C(=O)CN(C1)CC(C)(C3)C2=O	17.5%
O=C(NCCN1CCCCCC1)C1CC(=O)N(CCc2ccccc2)C1 (stereo not shown)	11.3%
Cc1ccc(OCCNC(=O)c2cc(-n3cnnc3)ccc2Cl)cc1C	3.63%
CCCOP(=O)(c1ccc(N(C)C)cc1)C(O)c1cccnc1 (stereo not shown)	3.22%
O=C(NCc1ccc(Cl)cc1)C1CCCN(c2cnccn2)C1 (stereo not shown)	-40%
CCCn1c2ccc(F)cc2c2nnc(SCCN3CCOCC3)nc21	1.29%
O=C(NCC1(c2ccccc2)CCCC1)c1cccc(Br)c1	12.7%
COc1ccc(-c2noc(CN(C(=O)c3ccoc3C)C(C)C)n2)cc1	14.8%
Brc1c(CSc2nc3ccccc3o2)nc2ncccn12	-22.5%
Cc1ccc(NC(=O)CSc2nnc(-c3ccc(S(=O)(=O)N4CCOCC4)cc3)n2C)cc1	-14.6%
CCOc1cccc(-c2nnc3sc(-c4cc(OC)c(OC)c(OC)c4)nn23)c1	-3.2%
CCOC(=O)[C@@H]1[C@H]2COc3cc(OC)ccc3[C@@H]2N2C(=O)N(c3ccc(OC)cc3)C(=O)[C@]12C	11.7%
O=c1c(Cc2ccccc2)c(O)nc2n1CCS2	17%
O=C(Nc1ccc(Cl)c(Cl)c1)C1=Cc2ccccc2OC1	14%
NNC(=O)c1ccc(COc2ccc3ccccc3c2)o1	17.8%
C=CCNC(=O)c1ccc2c(c1)N(CC)C(=O)c1ccccc1S2	9.08%
NC(=O)COC(=O)c1ccc(-c2ccc(O)cc2)cc1	3.18%
CC(NC(=O)CCc1nnc(-c2ccccc2)o1)c1ccccc1 (stereo not shown)	13.8%

Structure (SMILES)	hERG current change (%, negative = inhibition) at 1uM
CCOc1ccc(N(CC(=O)N/N=C/c2ccc(OC(C)C)cc2)S(C)(=O)=O)cc1	14.9%
CCC(=O)C1CCCN(C(=O)c2cccc(OC3CCN(S(C)(=O)=O)CC3)c2)C1 (stereo not shown)	18.4%
Cc1cc(C)c2nc(NNC(=O)c3ccc(S(=O)(=O)N4CC(C)CC(C)C4)cc3)sc2c1 (stereo not shown)	13.2%
CCCCN(c1ccccc1)S(=O)(=O)N(C)C	10.7%
Cc1c(OC(C)C(=O)NCC2CCC(C(=O)O)CC2)ccc2c(-c3ccccc3)cc(=O)oc12 (stereo not shown)	13.9%
CCCOC(=O)c1ccc(-n2nnnc2SCC(=O)N2CCCCC2)cc1	5%
CC(C)C(=O)NCCn1ccc2ccccc21	-0.544%
CC(C)(C)c1ccccc1NC(=S)NCc1ccccc1	9.94%
CCNc1nc(OC)nc(N2CCC(Cc3ccccc3)CC2)n1	8.94%
Cc1cc(C)cc(C(=O)NC(CC(N)=O)c2ccc(NC3CCCCCCC3)c([N+](=O)[O-])c2)c1 (stereo not shown)	1.08%
CCC(=O)N(CCC(c1ccccc1)c1ccco1)Cc1cccs1 (stereo not shown)	1.53%
O=S(=O)(Cc1cc(NCc2ccccc2)nc(-c2ccncc2)n1)c1ccccc1	15.3%
Cn1ccnc1Sc1nc(Nc2cccc(Cl)c2)nc(N2CCOCC2)n1	-11.7%
Cc1ccccc1C(=O)N1CCC(C(=O)Nc2ccc3c(c2)OCO3)CC1	7.7%
COc1ccc(Nc2cc(C)nc(N3CCOCC3)n2)cc1	1.79%
CCN(CC)CCOC(=O)c1ccc(NC(=O)CCCN2C(=O)/C(=C\c3cccs3)SC2=S)cc1	7.28%
CCN(CC)C(=O)CSC1=C(C#N)C(c2cccs2)C=C(C)N1 (stereo not shown)	12%
Cc1ccc(C)c(N2CCN(C(=O)CCNC(=O)Cn3ccc4ccccc4c3=O)CC2)c1	12.5%
CCOC(=O)CSc1nc2c([nH]c3ccccc32)c(=O)n1C	16%
CCOC(=O)c1cnc2c(OC)cccc2c1NCc1cccnc1	-68.1%
COc1ccc(-c2ccc(SCC(=O)N3CCCC3)nn2)cc1OC	-2.21%
CC(C)CNC(=O)COC(=O)c1cc(S(=O)(=O)N2CCCCC2)ccc1N1CCOCC1	-8.88%
